# Measurements: PubChem BioAssay AID2546 (National Center for Advancing Translational Sciences (NCATS), 2010)
# Out of some 310,000 compounds screened, about 11,000 (3.5%) were called active. The shares of active, inactive and inconclusive entries below differ from those in the screen. The call rests on the fitted dose curve; in most records, active means well fitted inhibition curve with a large enough effect; inconclusive means small, poorly fitted or top-dose-only effect, or effect the other way; inactive means flat fitted curve, though single readings scatter. Potencies of inconclusive entries are left out as doubtful fits.
# Experiment: VP16 counterscreen qHTS for inhibitors of ROR gamma transcriptional activity;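 further: Gal4-VP16 expression switched on by copper sulfate through the metallothionein promoter; nearly all actives have a fitted effect of over 50% in size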
# Settings: Drosophila S2 Gal4-VP16 UAS-luciferase, luminescence, 20 h; series mostly up to 53.6 µM
# Potency means the concentration at half of the fitted maximal effect; tags describe the fitted curve by direction and shape.
row,Compound,Potency
1,O=C(N/N=C/C(Br)=C/c1ccccc1)c1n[nH]c2c1CCC2,"inconclusive [inhibitor, single point]"
2,CC(Sc1nnc(Nc2ccccc2)s1)C(=O)NC1CCCc2ccccc21 (centres undefined),"inconclusive [inhibitor, single point]"
3,N#Cc1nc(COc2ccccc2Cl)oc1NCc1cccnc1,"inconclusive [inhibitor, partial curve, poor fit]"
4,O=C(CNC(=O)c1ccc(Cl)cc1)NC1CCCCC1,inactive
5,Oc1ccc(O)c(Cc2nc3ccccc3s2)c1,active: 25.1 µM
6,COc1cccc(-c2nc(-c3cccs3)no2)c1,"inconclusive [inhibitor, single point]"
7,CN(C)c1ccc(NC(=O)c2cccc(C(=O)Nc3ccc(N(C)C)cc3)n2)cc1,"inconclusive [inhibitor, single point]"
8,O=C(Cn1nnc2ccccc21)N/N=C\C=C\c1ccccc1,"inconclusive [inhibitor, single point]"
9,COc1ccccc1[C@H]1C(c2ccccc2)=NN(c2ccccc2)[C@@H]1CO,"inconclusive [inhibitor, single point]"
10,COc1ccc(C2=NN(C(=O)COc3ncnc4ccccc34)C(c3ccco3)C2)cc1 (centres undefined),inactive
11,CCN(CC(=O)Nc1ccc2c(c1)OCO2)Cc1nc2ccccc2c(=O)[nH]1,active: 7.08 µM
12,O=C(NCCc1cn2ccccc2n1)c1cc(COc2ccc3ncccc3c2)on1,"inconclusive [inhibitor, single point]"
13,C=C1C(=O)O[C@@H]2[C@H]1CC[C@H](C)[C@]1(O)CCC(=O)[C@@]21C,"inconclusive [inhibitor, single point]"
14,O=C(O)c1cc(-c2ccc3ccccc3n2)nc2ccccc12,active: 11.2 µM
15,CCNc1nc(NCC)nc(OCCOC(=O)c2ccccc2)n1,"inconclusive [inhibitor, single point]"
16,O=C(CN(c1cccc(Cl)c1)S(=O)(=O)c1ccc(Cl)cc1)NCc1ccccn1,inactive
17,COCC(C)N=C1NN=C(c2c[nH]c3ccccc23)CS1 (centres undefined),"inconclusive [inhibitor, single point]"
18,Cc1ccc(C(=O)Nc2ccc(N3CCN(C)CC3)cc2)cc1C,"inconclusive [inhibitor, single point]"
19,O=c1cc(CSc2nnc(NC3CCCCC3)s2)nc2sccn12,inactive
20,COc1ccc(Cl)cc1S(=O)(=O)N1CCC(C(=O)NCCC2=CCCCC2)CC1,inactive
21,Cc1ccc2nc(-c3ccc(SCC(=O)N4CCc5ccccc54)nc3)[nH]c2c1,"inconclusive [inhibitor, single point]"
22,Cc1csc(=Nc2ccc(S(=O)(=O)N3CCOCC3)cc2)n1Cc1ccco1,inactive
23,O=C(Nc1ccncc1)Nc1cc(Cl)ccc1Cl,"inconclusive [inhibitor, single point]"
24,CCn1cc(CNC(=O)c2ccc3nc(Cc4ccccc4F)oc3c2)cn1,"inconclusive [inhibitor, single point]"
25,CCOc1cc(C=O)ccc1OCCn1c([N+](=O)[O-])cnc1C,inactive
26,COC(=O)CC1=NN(c2ccc(OC)cc2)C(=O)/C1=C\c1ccc(Cl)cc1,"inconclusive [inhibitor, single point]"
27,CCCC(=O)Nc1cccc(-c2nc3cc(C)c(C)cc3o2)c1,"inconclusive [inhibitor, full curve, poor fit]"

row,Compound,Potency
1,Cc1nnc(SCC(=O)NC2CCCc3c2cnn3-c2ccccc2F)o1 (centres undefined),inactive
2,Cc1ccc(OCCN2C(=O)C(=O)c3cc(C)ccc32)cc1,inactive
3,Cc1cccc(CSc2nnc(-c3ccco3)o2)c1,"inconclusive [inhibitor, single point]"
4,Cc1cc(C)c(C#N)c(SCC(=O)Nc2ccc(S(=O)(=O)Nc3ncccn3)cc2)n1,active: 12.6 µM
5,CCCN1CCN(CCNC(=O)Nc2cc(C)ccc2C)CC1,inactive
6,N/C(=N\N=C\c1ccc(Br)o1)c1nonc1N,inactive
7,O=C(Cc1c(Cl)cccc1Cl)OCc1ccccn1,"inconclusive [inhibitor, full curve, poor fit]"
8,Cc1cc(OCC(=O)NNC(=S)NCC2CCCO2)cc(C)c1Cl (centres undefined),active: 6.31 µM
9,O=C(NC(=S)Nc1cccc(F)c1)c1cccc([N+](=O)[O-])c1,active: 6.31 µM
10,CCN(CC)CC(=O)Nc1cccc2c1C(=O)c1ccccc1C2=O,inactive
11,Cc1c(C(=O)N(C)c2ccccc2)oc2c1C(O)CC(C)(C)C2 (centres undefined),inactive
12,Nc1cc(=O)[nH]c(SCc2nc3ccccc3n2Cc2ccccc2)n1,inactive
13,Cc1ccc(N=Nc2[nH]c3ccccc3c2O)cc1,"inconclusive [activator, single point]"
14,CCN(CC)Cc1c(O)c(Cl)cc2c(C)c(C)c(=O)oc12,inactive
15,CC(C)CNC(=O)COC(=O)c1c2c(nc3ccccc13)CCC2,"inconclusive [inhibitor, single point]"
16,Cc1ccc(CCC(=O)Nc2ncc(Cc3cccc(Cl)c3Cl)s2)o1,"inconclusive [inhibitor, partial curve]"
17,COc1cccc(/C=N/NC(=O)CNC(=O)c2ccc3c(c2)OCCO3)c1O,active: 4.47 µM
18,O=C(Nc1ccc2ccccc2c1)/C(=C/c1cccc(Br)c1)NC(=O)c1ccco1,"inconclusive [inhibitor, single point]"
19,Cc1ccc(C)c(N/C(N)=N/c2nc(C)cc(C)n2)c1,inactive
20,CNNC(=S)NCCC1=CCCCC1,"inconclusive [activator, partial curve]"
21,CCN(CC)c1ccc(C(=O)Nc2cccc(F)c2)cc1,"inconclusive [inhibitor, single point]"
22,COc1ccccc1-c1ccc(SCC(=O)NC2CCCCC2)nn1,inactive
23,Cc1c(O)ccc(-c2n[nH]c(C(=O)O)c2-c2nc3ccccc3s2)c1O,inactive
24,C/C=C/C1=Cc2ccccc2C(C(C(=O)OC)C(=O)OC)N1C(=O)OC (centres undefined),inactive
25,COc1ccc(NC(=O)COC(=O)c2cc(SC)ccc2Cl)c(OC)c1,"inconclusive [activator, single point]"
26,CCCN1C(=S)SC(C)(C)C1/[N+]([O-])=C/c1ccc(S(=O)(=O)NC)cc1 (centres undefined),"inconclusive [inhibitor, single point]"
27,COc1ccc(-c2cc(C(F)(F)F)nc(S(C)(=O)=O)n2)cc1OC,active: 5.62 µM

row,Compound,Potency
1,C/C(=N/N1CCN(c2ccccc2)CC1)c1cccc([N+](=O)[O-])c1,inactive
2,S=C(NCc1ccc2c(c1)OCO2)Nc1ccc(-c2nc3ccccc3[nH]2)cc1,inactive
3,COc1ccc(NC(=O)c2cc(C)no2)cc1,inactive
4,NC(=S)NN=C1C2CC3CC(C2)CC1C3,"inconclusive [inhibitor, single point]"
5,Cc1ccccc1OCCOc1cccc(/C=N/NC(=O)Cc2nnc(N)s2)c1,"inconclusive [inhibitor, partial curve]"
6,O=C(NC(=S)Nc1ccc(N2CCCCC2)cc1)c1ccc2c(c1)OCCO2,active: 5.01 µM
7,CCOc1ccc(C(=O)Nc2nccs2)cc1[N+](=O)[O-],"inconclusive [inhibitor, single point]"
8,C=CCN1CN(Cc2ccco2)CNC1=S,"inconclusive [inhibitor, single point]"
9,CC1(C)CC(=O)c2sc(NC(=O)c3cccs3)nc2C1,active: 5.62 µM
10,Cn1c(C(=O)NCCCN2CCN(c3cccc(Cl)c3)CC2)cc2c(=O)n(C)c3ccccc3c21,"inconclusive [inhibitor, single point]"
11,Nc1nc2c(nc(Br)n2[C@@H]2O[C@H]3COP(=O)(O)O[C@H]3[C@@H]2O)c(=O)[nH]1,inactive
12,Cc1ccc(C(=O)/C=C/c2ccc3ncccc3c2)cc1,"inconclusive [inhibitor, single point]"
13,N/C(=N\c1nc2ccccc2o1)NC(=O)c1ccccc1NC(=O)c1ccccc1,"inconclusive [inhibitor, single point]"
14,Cc1nc2ccccc2n1CC(O)Cn1c2ccccc2c2ccccc21 (centres undefined),"inconclusive [inhibitor, single point]"
15,CC(C)CCc1c(O)nc(SCC(C)C)[nH]c1=O,inactive
16,CCC1(c2ccccc2)NC(=S)N(c2ccc(C)c(C)c2)N1 (centres undefined),"inconclusive [inhibitor, single point]"
17,O=C(N/N=C/C=C/c1cccc([N+](=O)[O-])c1)C(O)c1ccccc1 (centres undefined),inactive
18,O=C(N/N=C/c1ccoc1)c1ccc([N+](=O)[O-])cc1,"inconclusive [inhibitor, partial curve]"
19,CCN1C(=O)C(NC(C)=O)c2cc(Br)ccc21 (centres undefined),inactive
20,CC(/C=N\NC(=O)CN1CCN(S(=O)(=O)c2ccc(C)cc2)CC1)=C\c1ccccc1,inactive
21,CCOC(=O)c1c(NC(=S)NC)sc2c1CC(C)(C)SC2,active: 0.891 µM
22,CCOC(=O)C1CCN(S(=O)(=O)c2cc(C(=O)OC)n(C)c2)CC1,inactive
23,CC(Oc1ccc(Br)cc1)C(=O)Nc1nc(-c2ccccn2)cs1 (centres undefined),active: 3.16 µM
24,O=C(Nc1ccccc1)c1cc2ccc3ccccc3c2s1,"inconclusive [inhibitor, partial curve]"
25,CC(C(=O)NCc1ccco1)n1nc(-c2ccccc2)c2cc(Cl)ccc21 (centres undefined),"inconclusive [inhibitor, single point]"
